Not every detail of the peptide structures is certain; ends, links or a residue may be inferred. Some entries repeat one wording, which the source may state once for all of them. Where no end group is shown, it is not given here.
Legend:
[1] = system: Escherichia coli D21; test: Antimicrobial inhibition zone assay, E. coli D21; assay type: cell-based; details: for Antimicrobial activity of the purified temporins (in words): purified natural peptides; for Antimicrobial activity of the purified temporins (in words) / Lethal concentration / Antibacterial activity (in words): E. coli D21; for Lethal concentration: Table 2; for Lethal concentration for D21: LB broth/1% agarose; for Antibacterial activity (in words): synthetic peptides
Method: (§1) Antimicrobial assay. The antibacterial activity was tested against Bacillus megaterium BM11, Staphylococcus aureus Cowahl, Streptococcus pyogenes b hemolytic group A, Pseudomonas aeruginosa ATCC 15692, Escherichia coli D21, E. coli D21e7, E. coli D21f1, E. coli D21f2 and E. coli D22, using an inhibition zone assay on LB broth/1% agarose plates seeded with 2×10^5 viable bacteria (Hultmark, D., Engstrom, A., Andersson, K., Steiner, H., Bennich, H. & Boman, H. G. (1983) Insect immunity. Attacin, a family of antibacterial proteins from Hyulophora cecropin, EMBO J. 2, 571-576). Fresh cultures of Candida albicans ATCC 10261 were inoculated in WB broth, pH 6.5, and grown at 37° C. to approximately 0.6 OD600. Before plating, cultures were diluted 300 fold and then incubated overnight at 37° C. in the presence of the test peptide, the concentration of which was established by amino acid analysis. Inhibition zones were measured and the lethal concentration (LC, the lowest concentration that inhibits the growth) was calculated from the diameter of the zones obtained in serial dilutions of the test substance by using the formula given in Hultmark, D., Engstrom, A., Andersson, K., Steiner, H., Bennich, H. & Boman, H. G. (1983) Insect immunity. Attacin, a family of antibacterial proteins from Hyulophora cecropin, EMBO J. 2, 571-576). Values are expressed as the mean of at least 5 experiments with a divergence of not more than one dilution step.
The antibacterial activity of temporins A and B was also tested against three strains of E. coli D21, D21e7, D21f1 and D21f2, with consecutive mutations deleting increasing amounts of the side chain in LPS (Boman, H. G. & Monner, D. A. (1975) Characterization of lipopolysaccharides from Escherichia coli K12 mutants, J. Bacteriol. 121, 455-464). Strain D22 has a permeable outer membrane due to a mutation in the envA gene (Normark, S., Boman, H. G. & Matsson E. (1969), Mutant of Escherichia coli with anomalous cell division and ability to decrease episomally and chromosomally mediated resistance to ampicillin and several antibiotics. J. Bacteriol, 97, 1334-1342). The activities of the temporins were tested in the absence or in the presence of the basal medium E (Vogel, H. J. & Bonner, D. M. (1956) Acetylornithinase of Escherichia coli: partial purification and some properties, J. Biol. Chem. 218, 97-106),

[2] = system: Bacillus megaterium BM11; test: Antimicrobial inhibition zone assay, B. megaterium; assay type: cell-based; details: for Antimicrobial activity of the purified temporins (in words): purified natural peptides, B. megaterium; for Lethal concentration: B. megaterium BmII, inhibition zones on agarose plates
Method: as §1

[3] = system: Y. pseudotubercolosis; test: Antimicrobial inhibition zone assay, Y. pseudotubercolosis; assay type: cell-based; details: inhibition zones on agarose plates
[4] = system: Staphylococcus aureus Cowan1; test: Antimicrobial inhibition zone assay, S. aureus; assay type: cell-based; details: inhibition zones on agarose plates
Method: as §1, with “Insect immunity. […] Values are” for “Insect immunity. Attacin, a family of antibacterial proteins from Hyulophora cecropin, EMBO J. 2, 571-576). Values are”

[5] = system: E. coli D21e7; test: Antimicrobial inhibition zone assay, E. coli D21e7; assay type: cell-based, Escherichia coli; details: LB broth/1% agarose
[6] = system: E. coli D22; test: Antimicrobial inhibition zone assay, E. coli D22; assay type: cell-based, Escherichia coli; details: LB broth/1% agarose
[7] = system: E. coli D21f2; test: Antimicrobial inhibition zone assay, E. coli D21f2; assay type: cell-based, Escherichia coli; details: LB broth/1% agarose
[8] = system: Pseudomonas aeruginosa ATCC 15692; test: Antimicrobial inhibition zone assay, Ps. aeruginosa; assay type: cell-based; details: Ps. aeruginosa ATCC15692, clinical isolate
[9] = system: Streptococcus pyogenes b hemolytic group A; test: Antimicrobial inhibition zone assay, S. pyogenes; assay type: cell-based; details: S. pyrogenes βhem. group A, clinical isolate
[10] = system: E. coli D21f1; test: Antimicrobial inhibition zone assay, E. coli D21f1; assay type: cell-based, Escherichia coli; details: LB broth/1% agarose
[11] = system: Candida albicans ATCC 10261; test: Antimicrobial inhibition zone assay, C. albicans; assay type: cell-based
[12] = Assays for biological activity of synthetic temporins (organisms not specified); assay type: cell-based

Which “Antimicrobial activity of the purified temporins (in words)” value (“Antimicrobial activity” below) [1] does the source give for FFPVIGRILNGIL-NH2 [Temporin G] here?
The value was “active”.

Which “Antimicrobial activity” value [1] does the source give for FLPLIGKVLSGIL-NH2 [Temporin F] here?
The value was “active”.

And the “Antimicrobial activity” value [2]?
Its value is “active”.

With FLPLIGRVLSGIL-NH2 [Temporin A] as the substance, how does the Lethal concentration [3] read?
The Lethal concentration was 7.0 µM.

And the Lethal concentration [1]?
The Lethal concentration was 11.9 µM.

What about the “Lethal concentration for D21” value ([1]; absence of medium E, Table 3) of the same substance?
Its value is 11.9 µM.

And the “Lethal concentration for D21” value ([1]; presence of medium E)?
Its value is 5.3 µM.

What about the “Antimicrobial activity” value [1] of the same substance?
The value was “active”.

And the “Antibacterial activity (in words)” value [1]?
Its value is “poorly active”.

What about the Lethal concentration [4] of the same substance?
The Lethal concentration was 2.3 µM.

And the “Lethal concentration for D21e7” value ([5]; absence of medium E)?
The value was 1.4 µM.

What about the “Lethal concentration for D21e7” value ([5]; presence of medium E) of the same substance?
Its value is 1.4 µM.

What about the “Lethal concentration for D22” value ([6]; absence of medium E) of the same substance?
The value was 3.4 µM.

What about the “Lethal concentration for D22” value ([6]; presence of medium E) of the same substance?
The value was 0.4 µM.

What about the “Lethal concentration for D21f2” value ([7]; absence of medium E) of the same substance?
Its value is 4.8 µM.

And the “Lethal concentration for D21f2” value ([7]; presence of medium E)?
Its value is 2.0 µM.

What about the Lethal concentration [8] of the same substance?
The Lethal concentration was greater than 360 µM.

And the Lethal concentration [2]?
Its Lethal concentration is 1.2 µM.

What about the Lethal concentration [9] of the same substance?
The Lethal concentration was 2.0 µM.

And the “Lethal concentration for D21f1” value ([10]; absence of medium E)?
The value was 0.9 µM.

And the “Lethal concentration for D21f1” value ([10]; presence of medium E)?
The value was 3.0 µM.

And the Lethal concentration [11]?
The Lethal concentration was 3.4 µM.

Which “Antimicrobial activity” value [1] does the source give for FVQWFSKFLGRIL-NH2 [Temporin L] here?
The value was “active”.

Which Lethal concentration [3] does the source give for LLPIVGNLLKSLL-NH2 [Temporin B] here?
Its Lethal concentration is 7.0 µM.

What about the Lethal concentration [1] of the same substance?
The Lethal concentration was 21.0 µM.

And the “Lethal concentration for D21” value ([1]; absence of medium E, Table 3)?
The value was 21.0 µM.

What about the “Lethal concentration for D21” value ([1]; presence of medium E) of the same substance?
Its value is 3.4 µM.

What about the “Antimicrobial activity” value [1] of the same substance?
The value was “active”.

And the “Antibacterial activity (in words)” value [1]?
Its value is “poorly active”.

And the Lethal concentration [4]?
Its Lethal concentration is 6.0 µM.

And the “Lethal concentration for D21e7” value ([5]; absence of medium E)?
The value was 13.2 µM.

And the “Lethal concentration for D21e7” value ([5]; presence of medium E)?
Its value is 4.2 µM.

And the “Lethal concentration for D22” value ([6]; absence of medium E)?
The value was 11.2 µM.

And the “Lethal concentration for D22” value ([6]; presence of medium E)?
Its value is 12.2 µM.

And the “Lethal concentration for D21f2” value ([7]; absence of medium E)?
Its value is 3.3 µM.

And the “Lethal concentration for D21f2” value ([7]; presence of medium E)?
Its value is 9.3 µM.

What about the Lethal concentration [8] of the same substance?
Its Lethal concentration is greater than 360 µM.

And the Lethal concentration [2]?
Its Lethal concentration is 2.8 µM.

What about the Lethal concentration [9] of the same substance?
Its Lethal concentration is 7.0 µM.

What about the “Lethal concentration for D21f1” value ([10]; absence of medium E) of the same substance?
The value was 10.0 µM.

What about the “Lethal concentration for D21f1” value ([10]; presence of medium E) of the same substance?
The value was 3.5 µM.

What about the Lethal concentration [11] of the same substance?
Its Lethal concentration is 4.0 µM.

Which “Antimicrobial activity” value [2] does the source give for “LLPNLLKSLL-NH2 [Temporin K, LLP---NLLKSLLa]” here?
The value was “some activity”.

Which results are given for “LSPNLLKSLL-NH2 [Temporin H, LSP---NLLKSLLa]”?
Antimicrobial activity of the purified temporins (in words) [2]: some activity; Biological activity of their own or as enhancers of other Rana peptides [12]: without any biological activity
